Source: the RNAGym collection of RNA variant scans (doi:10.7554/elife.90254)
The source gives no read counts; variants with many changes may rest on few reads.

B1: OR4K15 (parent)
chain: GUUAACGGUCAUAGGCCAUGGAAACUAGGAGCACCAUUUCGCUGCCAGUGAAGAAAUGAACAAAGAAAAUCUGGGCCAGGCAGGCAUCAAAAGAAAUAGUCUUGCGCUCAACCAGAAAGUCUGUAAUCAUUUUAAGGGUA

Variants of: B1
Experiment: self-cleavage, relative activity (ratio to wild type); higher = more cleavage; in vitro, sequencing; the parent is a self-cleaving ribozyme

Variant | self-cleavage
GUUAACGGUCAUAGGCCAUGGAACCUAGGAGCACCACUUCGCUGCCAGUGGAGAAAUGAACAAAGAAAAUCUGGGCCAGGCAGGCAUCAAAAGAAAUAGUCUUGCGCUCAACCAGAAAGUCUGUGAUCAUUUUAAGGGUA [A24C U37C A51G A125G] | 0.46
GUUAACGGUCAUAGGCCAUGGAACCUAGGAGCACCAUUUCGCCGCCAGUGUAGAAAUGAGCAAAGAAAAUCUGGGCCAGGCAGGCAUCAAAAGAAAUAGUCUUGCGCUCAACCAGAAAGUCUGUAUUCAUUUUAAGGGUA [A24C U43C A51U A60G A126U] | 1.49
GUUAACGGUCAUAGGCCAUGGAACCUAGGGGCACCAUUUCGCUGCCAGUGAAGAAACGAACAAAGAAAAUCUGGGCCAGGCAGGCAUCAAAAGAAAUAGUCUUGCGCUCAACCAGAAAGUCUGUAAUCACUUUAAGGGUA [A24C A30G U57C U130C] | 0.86
GUUAACGGUCAUAGGCCAUGGAACCUAGGAGCACCAUUUCGCUGCCAGCGAGGAAAUGAACAAAGAAAAUCUGGGCCAGGCAGGCAUCAAAAGAAAUAGUCUUGCGCUCAACCAGAAAGUCUGUAAUCAUUUUAAGGGUA [A24C U49C A52G] | 1.21
GUUAACGGUCAUAGGCCAUGGAACCUAGGAGCACCAUUUCGCUGCCAGUGAAGAAAUGGACAAAGUAAGUCUGGGCCAGGCGGGCAUCAGAAGAAAUAGUCCUGCGCUCAACCAGAAGGUCUGUAAUCAUUUUAAGGGUA [A24C A59G A66U A69G A82G A90G U102C A118G] | 0.29
GUUAACGGUCAUAGGCCAUGGAACCUAGGAGCACCAUUUCGCUGCCAGUGAAGAAAUGAACAAAGAAAGUCUGGGCCAGGCAGGCAUCAAAAGAAAUAGUCUUGCGCCCAACCGGGAAGUCUGAAAUCAUUUUAAGGGUA [A24C A69G U108C A114G A116G U124A] | 0
GUUAACGGUCAUAGGCCAUGGAACCUAGGAGCGCCAUUUCGCCGCCAGUGAAGAAAUGAACAAAGAAAAUCUGGGCCAGGCAGGCAUCAAAAGAAAUAGUCUUGCGCUCAACCUGAAAGUCUGUAAUCAUUUUAAGGGUA [A24C A33G U43C A114U] | 0.03
GUUAACGGUCAUAGGCCAUGGAACCUAGGAGCGCCAUUUCGCUACCAGUGAAGAAAUGAACAAAGAAAAUCUGGGCUAGGCAGGCAUCAAAAGAAGUAGUCUUGCGCUCAACCAGAAAGUCUGUAAUCAUUUUAAGGGUA [A24C A33G G44A C77U A96G] | 0.85
GUUAACGGUCAUAGGCCAUGGAACCUAGGAGCACCAUUUCGCUGCCAGUGAAGAAAUGAACAAAGAAAAUCUGGGCCAGGCAGGCAUCAAAAGAAAUGGUCUUGCGCUCAACCAGAAAGUCUGUAAUCAUUUUGAGGGUA [A24C A98G A134G] | 0.49
GUUAACGGUCAUAGGCCAUGGAACCUAGGAGCACCAUUUCGCUGCCAGCGAAGAAAUGAACAAAGAAAAUCUGGGCCAGGCAGGCAUCAAAAGAAAUAGUCUUGCGCUCAACCAGAGAGUCUGUAAUCAUUUUAAGGGUA [A24C U49C A117G] | 1.99
GUUAACGGUCAUAGGCCAUGGAACCUAGGAGCUCCAUUUCGCUGCCAGUGAAGAAAUGAACAAAGAAAAUCUGGGCCAGGCAGGCAUCAAAAGAAAUAGUCUUGCGCUCGACCAGAAAGUCUGUAAUCAUUUUAAGGGUA [A24C A33U A110G] | 0.1
GUUAACGGUCAUAGGCCAUGGAACCUAGGAGCACCAUUUCGCUGCCAGUGAAGAAAUGAACGAAGAAGAUCUGGGCCAGGCAGGCAUCAAAAGAAAUAGUCUUGCGCUCAACCAGAAAGUCUGUAAUCAUUUUAAGGGUA [A24C A62G A68G] | 1.27
GUUAACGGUCAUAGGCCAUGGAACCUAGGAGCACCAUUUCGCUGCCAGUGAAGAUAUGAACAAAGAAAAUCCGGGCCAGGCAGGCAUCAAAAGAAAUAGUCUUGCGCUCAACCAGAUAGUCUGUAAUCAUUUUAAGGGUA [A24C A55U U72C A117U] | 0.21
GUUAACGGUCAUAGGCCAUGGAACCUAGGAGCACCUUUUCGCUGCCAGUGAAGAAAUGAACAAAGAAAAUCUGGGCCAGGCAGGCAUCAAAAGAAAUAGUCUUGCGCUCAACAAGGAAGUCUGUAAUCAUUUUAAGGGUA [A24C A36U C113A A116G] | 0.01
GUUAACGGUCAUAGGCCAUGGAUACUAGGAGCACCAUUUCGCUGCCAGUGAAGAAAUGAACAAAGAAAAUCUGGGCCAGGCAGGCAUCAAAAGAAAUAGCCUUGCGCUCAGCCAGAUAGUCUGUAAUCAUUUUAAGGGUA [A23U U100C A111G A117U] | 0.04
GUUAACGGUCAUAGGCCAUGGAACCUAGGAGCACCAUUUCGCUGCCAGUGAAGAAAUGAACAAAGAAGAUCUGGGCCAGGCAGGCGUCAAAAGAAAUAGUCUUGCGCUCAACCAGAAAGUCUGUAAUCAUUUUAAGGGUA [A24C A68G A86G] | 1.4
GUUAACGGUCAUAGGCCAUGGAACCUAGGAGCACCAUUUCGAUGCCAGUGAAGAAAUGAACAAAGAAAAUCUGGGCCAGGCAGGCAUCAAAAGAAAUAGUCUUGCGCUCAACCAGAAAGUCCGUAAUCAUUUUAAGGGUA [A24C C42A U122C] | 0.89
GUUAACGGUCAUAGGCCAUGGAACCUAGGAGCACCAUUUCGCUGCCAGUGAAGAGAUGGACAAAGAAAAUCUGGGCCAGGCAGGCAUCAAAAGAAAUAGUCUUGCGCUCCACCAGAAAGUCUGUAAUCACUUUAAGAGUA [A24C A55G A59G A110C U130C G137A] | 0.24
GUUAACGGUCAUAGGCCAUGGAACCUAGGGGCACCAUUUCGCUGCCAGUGAGGAAAUGAACAAAGAAACUCUGGGCCAGGCAGGAAUCAAAAGAAAUAGUCUUGCGCUCAACCAGAAAGUCUGUAAUCAUUUUAAGGGUA [A24C A30G A52G A69C C85A] | 1.39
GUUAACGGUCAUAGGCCAUGGAACCUAGGAGCACCAUUUCGCUGCCAGCGAAGAAAUGAACAAAGAAAAUCUGGGCCAGGCAGGCAUCAAAGGAAAUAGUCUUGCGCUCAACCAGAAAGUCUGUAAUCAUUUUAAGGGUA [A24C U49C A92G] | 1.02
GUUAACGGUCAUAGGCCAUGGAACUUGGGAGCACCAUUUCGCUGCCAGUGAAGAAAUGAACAAAGAAAAUCUGGGCCAGGCAGGCAUCAAAAGAAAUAGUCUUGCGCUCAACCAGAAAGUCUGUAAUCAUUUUAAGGGUA [A24C C25U A27G] | 1.43
